# Test results: PubChem BioAssay (Tox21)
# Values joined by “and” are separate entries in the source; they are usually repeats but may differ in a detail not shown here. Equal entries are not always repeated. Inconclusive means that the source gave no clear call. Such entries were picked first, then a sample of the others. For some of these results: Where the call is inconclusive, the potency comes from a doubtful curve fit. More than one record can exist for a structure, and the calls need not agree. Active and inactive are the calls of the source. Unless noted, the call rests on the fitted dose curve; in most records, active means well fitted curve in the direction sought with a large enough effect in the repeat runs; inconclusive means weak or mixed curves; inactive means no such curve, though single readings can be large; an effect the other way counts as inactive or inconclusive.
# Legend:
# [1] = qHTS assay for small molecule disruptors of the mitochondrial membrane potential - cell viability (AID 720634; calls by dose curve; further: nearly all actives have a fitted effect of over 20% in size; further: potency means the concentration at half of the fitted maximal effect)
# Outline: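 Viability of HepG2 cells is scored from ATP content by luminescence; cells are exposed to compound for 1 hr at 37 C and 5% CO2, then dosed with m-MPI dye before the CellTiter-Glo reagent.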
# [2] = qHTS assay for small molecule disruptors of the mitochondrial membrane potential (AID 720635); settings: HepG2 mitochondrial membrane potential, Mito-MPS dye ratio; ratio activity, negative = MMP loss: at 83.2 µM (top of the series) unless noted; further: potency means the concentration at half of the fitted maximal effect; on ratio activity, negative = MMP loss: on the % scale 0 is the no-effect control and ±100 the full control effect
# Outline: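 Mitochondrial membrane potential tracked with Mito-MPS dye, red aggregates (ex 540/em 590 nm) against green monomers (ex 490/em 535 nm). Compound treatment 1 hr at 37C, dye 30 min in HepG2.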
# [3] = molecular target: Glucocorticoid receptor (Homo sapiens) (UniProt P04150); experiment: qHTS assay to identify small molecule antagonists of the glucocorticoid receptor (GR) signaling pathway (AID 720692; active means well fitted inhibition curve with a large enough effect in the signal ratio in the repeat runs, not every such curve was filed as active; inconclusive means weak or mixed curves, or effect the other way; inactive means no such curve, though single readings can be large or run the other way; the % refers to the signal ratio; further: potency means the concentration at half of the fitted maximal effect; on activity change, negative = inhibition: on the % scale 0 is the no-effect control and ±100 the full control effect); settings: GR-bla HeLa, beta-lactamase FRET ratio, dexamethasone-stimulated, 18 h
# Outline: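 In a 1536-well cell format, compounds were added 4 h after seeding GR-bla HeLa cells, together with dexamethasone at 5 nM final; reporter activity was measured by FRET-substrate fluorescence following 18 h at 37 C.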
# [4] = molecular target: Glucocorticoid receptor (Homo sapiens) (UniProt P04150); experiment: qHTS assay to identify small molecule agonists of the glucocorticoid receptor (GR) signaling pathway (AID 720691; active means well fitted activation curve with a large enough effect in the signal ratio in the repeat runs, not every such curve was filed as active; inconclusive means weak or mixed curves, or effect the other way; inactive means no such curve, though single readings can be large or run the other way; the % refers to the signal ratio; further: potency means the concentration at half of the fitted maximal effect; on activation: on the % scale 0 is the no-effect control and ±100 the full control effect); settings: GR-bla HeLa, beta-lactamase reporter ratio, 18 h; activation: at 62.4 µM (top of the series) unless noted
# Outline: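 Compounds in DMSO, alongside positive controls, were added to GR-bla HeLa reporter cells and incubated 18 h at 37 C; GRE-driven beta-lactamase was detected by fluorescence after 2 h with FRET substrate at room temperature.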
# [5] = qHTS assay to identify small molecule antagonists of the glucocorticoid receptor (GR) signaling pathway - cell viability counter screen (AID 720693); settings: GR-bla HeLa viability, CellTiter-Glo luminescence, 18 h, with 5 nM dexamethasone present; viability change, negative = cytotoxic: at 58.5 µM (top of the series); further: potency means the concentration at half of the fitted maximal effect; nearly all actives have a fitted effect of over 55% in size
# [6] = qHTS assay for small molecules that induce genotoxicity in human embryonic kidney cells expressing luciferase-tagged ATAD5 - cell viability (AID 651634; calls by dose curve; further: nearly all actives have a fitted effect of over 25% in size; further: potency means the concentration at half of the fitted maximal effect)
# Outline: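 Here HEK293T cells with the ATAD5 luciferase reporter are incubated with test compounds for 15.5 hr, and cytotoxicity is then gauged by measuring protease activity in live cells using fluorescence.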
# [7] = qHTS assay to test for compound auto fluorescence at 460 nm (blue) in HEK293 cells (AID 720678); further: potency means the concentration at half of the fitted maximal effect
# Outline: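 HEK293, 2,000 cells/well, 10% dialyzed FBS; attach 4-5 hr 37C; pin compound or DMSO; o/n 37C/5% CO2; fluorescence 405/460 nm; triamterene-equivalent units.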
# [8] = qHTS assay to test for compound auto fluorescence at 460 nm (blue) in HepG2 cell free culture (AID 720685); further: potency means the concentration at half of the fitted maximal effect
# Outline: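 Cell-free plates of MEM plus 10% FBS received 23 nL compound or DMSO vehicle; blue-channel (405/460 nm) intensity scored against triamterene as reference fluorophore.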
# [9] = qHTS assay to test for compound auto fluorescence at 460 nm (blue) in HepG2 cells (AID 720687); further: potency means the concentration at half of the fitted maximal effect
# Outline: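 Blue-channel autofluorescence (Ex/Em 405/460 nm, triamterene-equivalent) was measured after 1 hr compound exposure at 37 C, 5% CO2. Cells were HepG2, plated overnight at 37 C in MEM plus 10% FBS.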
# [10] = qHTS assay to test for compound auto fluorescence at 535 nm (green) in HepG2 cell free culture (AID 720686); further: on the % scale 0 is the no-effect control and ±100 the full control effect
# [11] = qHTS assay to test for compound auto fluorescence at 535 nm (green) in HEK293 cell free culture (AID 720682); settings: cell-free medium, green autofluorescence 485/535 nm; further: potency means the concentration at half of the fitted maximal effect
# Outline: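 Fluorescein serves as the green reference fluorophore; each compound's intrinsic emission at 535 nm (excitation 485 nm) is reported as an equivalent amount of that dye, measured in serum-containing DMEM without cells.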
# [12] = activity change, negative = inhibition: at 58.5 µM (top of the series) unless noted
# Tags describe the fitted curve by direction and shape or compound fluorescence and quenching.
# Chain of UniProt P04150 (P04150 whole entry, looked up): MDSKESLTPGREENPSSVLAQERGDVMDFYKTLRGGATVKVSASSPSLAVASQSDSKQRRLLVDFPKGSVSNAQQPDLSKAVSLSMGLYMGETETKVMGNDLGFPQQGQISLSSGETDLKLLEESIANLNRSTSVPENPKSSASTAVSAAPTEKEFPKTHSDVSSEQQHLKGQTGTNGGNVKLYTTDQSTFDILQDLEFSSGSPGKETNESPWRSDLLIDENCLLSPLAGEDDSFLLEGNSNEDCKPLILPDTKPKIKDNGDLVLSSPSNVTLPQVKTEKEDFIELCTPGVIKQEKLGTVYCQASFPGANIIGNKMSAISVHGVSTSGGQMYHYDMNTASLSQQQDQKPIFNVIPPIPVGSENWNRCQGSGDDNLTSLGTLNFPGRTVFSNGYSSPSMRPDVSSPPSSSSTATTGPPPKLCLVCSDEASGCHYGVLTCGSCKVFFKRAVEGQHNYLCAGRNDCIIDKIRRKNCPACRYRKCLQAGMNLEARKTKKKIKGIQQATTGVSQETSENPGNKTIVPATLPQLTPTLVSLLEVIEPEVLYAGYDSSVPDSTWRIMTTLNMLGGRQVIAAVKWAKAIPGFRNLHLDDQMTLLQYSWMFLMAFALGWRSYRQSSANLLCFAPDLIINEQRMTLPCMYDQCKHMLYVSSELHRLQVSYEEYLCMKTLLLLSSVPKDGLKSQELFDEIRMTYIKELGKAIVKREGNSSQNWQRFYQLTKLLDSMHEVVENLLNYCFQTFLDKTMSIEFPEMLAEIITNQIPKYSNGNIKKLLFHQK
smiles,measurement,setting,value
CCCCCCOC(=O)CCCCC,Potency,[1],inactive
NCCNCCO,Potency,[1],inactive
same,Potency,[2],inactive
same,Potency,[3]; [12],inactive
C[C@]12C=CC(=O)C=C1CC[C@@H]1[C@@H]2C(=O)C[C@@]2(C)[C@H]1CC[C@]2(O)C(=O)CO,Potency,[1],inactive
same,Potency,[2],"inactive and inconclusive: 34.4 µM [activator, partial curve, poor fit]"
CC(C)c1ccc2c(c1)CC[C@H]1[C@](C)(CN)CCC[C@]21C,Potency,[1],"inconclusive: 68.6 µM [cytotoxic, single point]"
same,Potency,[2],"inconclusive: 5.45 µM [activator, full curve]"
same,Potency,[4],"inconclusive: 34.7 µM [cytotoxic, partial curve]"
same,Potency,[3]; [12],"inconclusive: 61.6 µM [cytotoxic, single point]"
same,Potency,[5],active: 38.9 µM
CC(C)N=C(N)/N=C(\N)Nc1ccc(Cl)cc1,Potency,[1],inactive
same,Potency,[2],inactive
CCOC(=O)c1ccc(C#Cc2ccc3c(c2)C(C)(C)CCS3)nc1,Potency,[6],inactive
same,Potency,[2],active: 29.8 µM
same,Potency,[7],"inconclusive: 10 µM [fluorescent, partial curve, poor fit]"
same,Potency,[8],"inconclusive: 8.91 µM [fluorescent, partial curve, poor fit]"
same,Potency,[9],"inconclusive: 12.6 µM [fluorescent, partial curve, poor fit]"
same,Potency,[4],inactive
same,"activity change, negative = inhibition",[3]; [12],inconclusive: -21%
c1ccc2sc(SN(C3CCCCC3)C3CCCCC3)nc2c1,Potency,[1],"inconclusive: 42.8 µM [cytotoxic, partial curve, poor fit]"
same,Potency,[2],"inconclusive: 8.53 µM [rising, partial curve, poor fit]"
Nc1ccc(N)c(Cl)c1,Potency,[1],"inconclusive: 48.5 µM [cytotoxic, partial curve]"
same,Potency,[2],active: 3.85 µM and active: 27.3 µM
same,Potency,[3]; [12],"inconclusive: 38.8 µM [inhibitor, partial curve] and inactive"
CN(Cc1cnc2nc(N)nc(N)c2n1)c1ccc(C(=O)N[C@@H](CCC(=O)O)C(=O)O)cc1,Potency,[1],"inconclusive: 0.0015 µM [cytotoxic, full curve, poor fit]"
same,Potency,[2],"inconclusive: 7.5 µM [inhibitor, partial curve, poor fit]"
same,Potency,[7],"inconclusive: 14.1 µM [fluorescent, partial curve, poor fit] and inconclusive: 44.7 µM [fluorescent, partial curve]"
same,Potency,[8],"inconclusive: 15.8 µM [fluorescent, single point]"
same,Potency,[9],"inconclusive: 15.8 µM [fluorescent, partial curve, poor fit]"
O=S(=O)(O)c1cc(S(=O)(=O)O)c2c(N=Nc3ccccc3)c(O)ccc2c1,Potency,[6],active: 48.8 µM and active: 61.1 µM
same,Potency,[2],"inconclusive: 24.3 µM [activator, partial curve]"
same,"ratio activity, negative = MMP loss",[2],inconclusive: 35.9% [at 95.3 µM]
same,Potency,[3]; [12],"inconclusive: 0.776 µM [activator, single point]"
OC[C@@H](O)[C@@H](O)[C@H](O)[C@H](O)CO,Potency,[1],"inconclusive: 13.3 µM [cytotoxic, partial curve, poor fit]"
CN1CCN(CCC(=O)N2c3ccccc3Sc3ccc(C(F)(F)F)cc32)CC1,Potency,[6],inactive
same,"ratio activity, negative = MMP loss",[2],inconclusive: 38.5%
Nc1nc2ccc([N+](=O)[O-])cc2s1,Potency,[6],inconclusive: 27.3 µM
same,Potency,[2],active: 4.33 µM
CC(CN(CCN(CC(C)OCCO)CC(C)OCCO)CC(C)OCCO)OCCO (centres undefined),Potency,[6],"inconclusive: 52.5 µM [falling, partial curve]"
same,"ratio activity, negative = MMP loss",[2],inconclusive: -17.6% [at 95.3 µM]
NC(=S)NC(N)=S,Potency,[1],inactive
same,Potency,[2],inactive
CCC(=O)O[C@H]1[C@H](O[C@@H]2[C@@H](C)[C@H](O[C@H]3C[C@@](C)(OC)[C@@H](O)[C@H](C)O3)[C@@H](C)C(=O)O[C@H](CC)[C@@](C)(O)[C@H](O)[C@@H](C)C(=O)[C@H](C)C[C@@]2(C)O)O[C@H](C)C[C@@H]1N(C)C,Potency,[6],"inconclusive: 23.7 µM [falling, partial curve]"
same,Potency,[2],"inconclusive: 40.5 µM [inhibitor, single point]"
same,Potency,[4],"inconclusive: 26.8 µM [cytotoxic, single point]"
same,Potency,[3]; [12],"inconclusive: 26.8 µM [cytotoxic] and inconclusive: 32.5 µM [inhibitor, partial curve]"
same,Potency,[5],"inconclusive: 26.8 µM [cytotoxic, single point]"
CCCC(CC)CCCCCCCN (centres undefined),Potency,[6],"inconclusive: 70.3 µM [falling, single point]"
same,Potency,[2],"inconclusive: 17.7 µM [activator, partial curve]"
Nc1ccc(N=Nc2ccccc2)c(N)n1,Potency,[6],"inconclusive: 61.1 µM [falling, single point]"
same,Potency,[2],active: 10.6 µM and active: 30.8 µM and active: 19.3 µM
same,Potency,[4],"inconclusive: 6.01 µM [inhibitor, full curve] and inconclusive: 6.96 µM [inhibitor, partial curve, poor fit] and inconclusive: 6.92 µM [inhibitor, full curve]"
same,Potency,[3]; [12],"inconclusive: 16.9 µM [inhibitor, partial curve, poor fit] and inconclusive: 34.7 µM [inhibitor, partial curve, poor fit]"
same,"activity change, negative = inhibition",[3]; [12],inconclusive: -20.3% [at 78.9 µM]
same,Potency,[5],"inconclusive: 21.3 µM [cytotoxic, partial curve] and inconclusive: 55.3 µM [cytotoxic]"
CSc1cnc(C)cn1,Potency,[6],"inconclusive: 125 µM [falling, single point]"
same,Potency,[2],inactive
same,"activity change, negative = inhibition",[3]; [12],inconclusive: 0.669% [at 78.9 µM]
CC(=O)[C@H]1CC[C@H]2[C@@H]3CCC4=CC(=O)CC[C@]4(C)[C@H]3CC[C@]12C,Potency,[6],"inconclusive: 18.8 µM [falling, partial curve, poor fit] and inconclusive: 48.3 µM [falling, partial curve, poor fit]"
same,Potency,[5],"inconclusive: 6.01 µM [cytotoxic] and active: 3.87 µM and inconclusive: 3.89 µM [cytotoxic, full curve]"
CC(C)c1nc(CN(C)C(=O)N[C@H](C(=O)N[C@@H](Cc2ccccc2)C[C@H](O)[C@H](Cc2ccccc2)NC(=O)OCc2cncs2)C(C)C)cs1,Potency,[6],"inconclusive: 11.9 µM [falling, partial curve]"
same,Potency,[2],"inconclusive: 33.5 µM [inhibitor, single point]"
same,"ratio activity, negative = MMP loss",[2],inconclusive: 20.1%
O=C(O)Cn1c(=O)n(Cc2ccc(Br)cc2F)c(=O)c2ccc(Cl)cc21,Potency,[6],"inconclusive: 61.1 µM [falling, partial curve, poor fit]"
same,Potency,[2],"inconclusive: 68.6 µM [rising, partial curve, poor fit]"
same,Potency,[3]; [12],"inconclusive: 61.6 µM [inhibitor, single point]"
Cc1cc(N)c(S(=O)(=O)O)cc1Cl,Potency,[1],inactive
C=CC1CO1 (centres undefined),Potency,[6],inactive
same,"activity change, negative = inhibition",[3]; [12],inconclusive: 19.4% [at 78.9 µM]
CCCC(CCC)C(=O)O,Potency,[6],"inconclusive: 68.6 µM [falling, single point]"
same,Potency,[2],"inconclusive: 216 nM [activator, partial curve, poor fit] and inconclusive: 77 µM [inhibitor, single point]"
OC(CCN1CCCC1)(c1ccccc1)C1CCCCC1 (centres undefined),Potency,[6],inactive
same,Potency,[2],"inconclusive: 0.507 µM [activator, full curve, poor fit]"
same,Potency,[5],"inconclusive: 0.0362 µM [rising, full curve, poor fit]"
CCCCCCC(O)CCCCCCCCCCC(=O)O (centres undefined),Potency,[1],inactive and active: 54.5 µM
same,Potency,[2],inactive and active: 54.5 µM
same,Potency,[10],inactive
same,"activity change, negative = inhibition",[3]; [12],inconclusive: 0.567% and inconclusive: 9.11%
O=Cc1ccc(F)cc1,Potency,[1],inactive
same,Potency,[2],"inconclusive: 68.6 µM [activator, single point]"
CCNc1nc(N)nc(Cl)n1,Potency,[1],inactive
same,"ratio activity, negative = MMP loss",[2],inconclusive: 10.1%
CNS(=O)(=O)c1cc(C(=O)N2CCC(CCN3C4CCC3CC(n3c(C)nc5ccccc53)C4)(c3cccc(F)c3)CC2)c(Cl)cc1F (centres undefined),Potency,[6],"inconclusive: 38.6 µM [falling, partial curve]"
same,Potency,[2],"inconclusive: 0.217 µM [activator, full curve]"
same,Potency,[5],active: 54.9 µM
Cc1ccc(N/N=c2\c(=O)cc/c(=N\Nc3ccc(S(=O)(=O)O)cc3)c2=O)c(C)c1,Potency,[6],active: 61.1 µM
same,Potency,[2],"inconclusive: 48.6 µM [activator, partial curve]"
Oc1ccc2c(c1)OCO2,Potency,[6],"inconclusive: 68 µM [falling, partial curve, poor fit]"
same,Potency,[2],inactive
same,"activity change, negative = inhibition",[3]; [12],inconclusive: 18.1%
C[C@]12CC[C@@H]3c4ccc(O)cc4C[C@@H](CCCCCCCCCS(=O)CCCC(F)(F)C(F)(F)F)[C@H]3[C@@H]1CC[C@@H]2O (some centres undefined),Potency,[1],"inconclusive: 7.5 µM [cytotoxic, partial curve, poor fit] and inconclusive: 9.68 µM [cytotoxic, partial curve, poor fit]"
O=C1OC2(c3ccc(O)cc3Oc3cc(O)ccc32)c2ccccc21,Potency,[11],active: 3.55 µM [fluorescent] and active: 3.98 µM [fluorescent]
Nc1nc(N)nc(-c2ccccc2)n1,"activity change, negative = inhibition",[3]; at 58.5 µM (top of the series),inactive: -10.8%
